This note sets out measurements from ChEMBL document CHEMBL4888484, “Replenishing the malaria drug discovery pipeline: Screening and hit evaluation of the MMV Hit Generation Library 1 (HGL1) against asexual blood stage Plasmodium falciparum ,using a nano luciferase reporter read-out” (2022).

Each structure is given as a SMILES string. Out of some 150,000 compounds screened, about 540 (0.36%) showed an effect of 50% or more. The list shows a part of the results.

The assay concerns Plasmodium falciparum. The assay is described as follows: Primary screen in NF54 nanoGlo assay, in single point, at 2uM, 72h; a lower Z score goes with more inhibition. It is filed as functional, Erythrocyte. Particulars: timepoint 72 hour.
With `Cc1cc(C#N)c(Br)cc1F`, the “% Inhibition” value is reported as -10% and the Z score was 1.13.
For `O=C(NC1CCCCCC1)[C@@H]1CCCN1S(=O)(=O)c1ccc2c(c1)OCCO2`, the “% Inhibition” value came out at 2% and the Z score was -0.29.
In the case of `CCS(=O)(=O)N1CCC2(CC1)O[C@@H](CC(=O)NC(C)C)Cc1ccccc12`, the “% Inhibition” value came to 3% and the Z score is given as -0.33.
Regarding `CCOC(=O)N[C@H](C(=O)N1CCCC1)C(C)C`, the “% Inhibition” value is on record as -9% and the Z score is 1.35.
The corresponding values for `Cc1cccc(CN(C(=O)c2ccco2)c2ccc(CC(=O)NCc3cccnc3)cc2)c1` are -9% and 1.23.
Take `CCn1c(-c2cc(NC(=O)Cc3cccc(OC)c3)[nH]n2)c(C)c2ccccc21`: the “% Inhibition” value is given as 4% and the Z score was -0.62.
With `O=C(CCc1conc1-c1cccc(F)c1)NC1CC1`, the “% Inhibition” value is listed as -8% and the Z score was 1.59.
Take `O=C1C2ON(c3ccccc3)C(c3ccc(-c4ccc(Br)cc4)o3)C2C(=O)N1c1cccc2ccccc12` (stereo not given): the “% Inhibition” value is reported as -9% and the Z score came out at 0.84.
As to `C[C@H](NC(=O)c1ccoc1)C(=O)Nc1ncccc1O`, the “% Inhibition” value is recorded as -4% and the Z score amounted to 0.37.
In the same order, the values of `Fc1ccc(-c2cc(-c3ccc(Br)cc3)nc3c2COc2ccccc2-3)cc1` are -8% and 0.91.
The corresponding values for `C=CCN1CC[C@H](N(C)Cc2cn(C)nn2)C1=O` are 5% and -0.46.
With `CCc1nc(Cc2noc(CC3CCOC(CC)C3)n2)cs1` (stereo not given), the “% Inhibition” value is -9% and the Z score stood at 1.8.
For the compound `CN(C)Cc1ccc(-c2nc3c([nH]2)CCCNC3=O)cc1`, the “% Inhibition” value is listed as -1% and the Z score came out at 0.1.
Regarding `Cc1ccc(-c2nnc(N3CCC(C(=O)NCc4ccccc4C)CC3)o2)cc1`, the “% Inhibition” value is listed as -2% and the Z score worked out at 0.3.
Regarding `Cc1cccc2c1C[C@H](NC(=O)c1ccnc(C3CC3)c1)CO2`, the “% Inhibition” value is given as -5% and the Z score was 0.79.
For the compound `Cc1cc(C(=O)N2CC[C@H]3[C@H](CCC(=O)N3CCc3cccs3)C2)on1`, the “% Inhibition” value was -11% and the Z score is on record as 1.06.
Regarding `Cn1c(O)c(C(=O)Nn2c(Cc3ccccc3)nc3ccccc3c2=O)c(=O)c2ccccc21`, the “% Inhibition” value is recorded as -11% and the Z score is on record as 0.96.
With `O=C(CCc1cc2n(n1)CCCN(Cc1ccccc1)C2)NC1CCCC1`, the “% Inhibition” value is recorded as -11% and the Z score came out at 1.07.
As to `Cc1noc(C)c1CO[C@H]1COCC[C@@H]1NC(=O)c1cn[nH]c1`, the “% Inhibition” value was -10% and the Z score is on record as 1.93.
On to `COc1cc(C2CN(C(=O)NC(C)C)CC2C(=O)N2CCOCC2)cc(OC)c1OC` (stereo not given), for which the “% Inhibition” value is reported as -6% and the Z score was found to be 0.67.
Take `COCCNC(=O)c1ccc(Nc2c(Oc3ccc(F)cc3)cnn(-c3ccc(F)cc3)c2=O)cc1`: the “% Inhibition” value came to 1% and the Z score was -0.18.
As to `Cc1cc(CC(=O)N[C@H]2CCCN(c3ccc(Cl)cc3Cl)C2)n[nH]1`, the “% Inhibition” value turned out to be 7% and the Z score is -1.13.
For the compound `CCN(CC)[C@@H](CNC(=O)COC1CCCC1)c1ccco1`, the “% Inhibition” value is given as -9% and the Z score turned out to be 1.28.
Take `CC(NCC1CCCn2ccnc21)c1ccc(F)c(F)c1` (stereo not given): the “% Inhibition” value is recorded as -8% and the Z score is 1.07.
For the compound `COc1ncccc1C(=O)N1CC(Oc2cc(C)nc3ncnn23)C1`, the “% Inhibition” value came out at 13% and the Z score was -1.74.
Take `O=C(NC1CCCCCCC1)C1=Cc2ccccc2OC1`: the “% Inhibition” value is recorded as -20% and the Z score is 1.87.
In the same order, the values of `CCc1cc(C#N)ccc1NC(=O)N1CCNC(=O)[C@@H]1Cc1c[nH]cn1` are -13% and 1.13.
The corresponding values for `O=S(=O)(Oc1cccc2cccnc12)c1ccc(Br)c2ccccc12` are -47% and 5.51.
With `CC(C)N1CCO[C@@H](CC(=O)NCC2(Cn3ccnc3)CC2)C1`, the “% Inhibition” value is listed as -3% and the Z score came to 0.49.
The corresponding values for `CN1CCC[C@H]1C(=O)N1CCC(C(=O)NC2CCCCCC2)CC1` are -9% and 1.52.
For `CCC(=O)Nc1cccc(-c2noc([C@H]3CCCN(C(=O)c4ccc(F)c(Cl)c4)C3)n2)c1`, the “% Inhibition” value is -9% and the Z score turned out to be 1.08.
For `Cc1ccc(C(=O)c2ccc(Br)cc2)cc1S(=O)(=O)Nc1ccccn1`, the “% Inhibition” value was -10% and the Z score is reported as 1.23.
The corresponding values for `Cc1ccc(NC(=O)c2oc(CO)cc2C)c(C)n1` are -2% and 0.41.
Consider `Cc1ccc(NS(=O)(=O)c2ccc(-c3cnc(C4CCC4)o3)s2)c(Cl)c1`, for which the “% Inhibition” value is listed as -8% and the Z score worked out at 0.88.
The corresponding values for `Cn1c(=O)sc2cc(NC(=O)Cc3ccccc3Cl)ccc21` are -5% and 0.58.
With `c1cc(CN2CCC[C@H]2c2nc(C3CC3)no2)c2nonc2c1`, the “% Inhibition” value is on record as -6% and the Z score was 0.89.
Consider `CCCCN1C(=O)C2C(CC(C)C)NC3(C(=O)Nc4ccc(Cl)cc43)C2C1=O` (stereo not given), for which the “% Inhibition” value was -20% and the Z score amounted to 2.56.
For the compound `Cc1cc(CS(=O)(=O)Cc2noc(-c3cccs3)n2)no1`, the “% Inhibition” value is -11% and the Z score is 2.14.
With `COc1ccc(CN2CC[C@H](N(CCCN3CCOCC3)S(C)(=O)=O)C2)cc1C`, the “% Inhibition” value is -2% and the Z score was 0.22.
Take `COc1cccc(C(=O)N2CCN(C(=O)Cn3cc(Cl)cn3)CC2)c1`: the “% Inhibition” value is -4% and the Z score is reported as 0.42.
In the case of `OCC(F)(F)CN1CCN(c2nc3ccccc3n3cncc23)CC1`, the “% Inhibition” value was 3% and the Z score was -0.5.
The corresponding values for `O=S1(=O)CC[C@H](NCc2cccc3ccccc23)C1` are -15% and 2.05.
In the same order, the values of `COc1cc(Br)cc(F)c1C#N` are -3% and 0.33.
Turning to `COc1cc2c(c(-c3nc(OC)c4cnn(-c5ccccc5)c4n3)c1)NC(C)(C)C=C2C`, the “% Inhibition” value is -10% and the Z score was found to be 1.3.
The corresponding values for `Cc1oc(C(C)(C)C)cc1CN1CC[C@H](NS(C)(=O)=O)C1` are -7% and 0.88.
As for `CCCOc1ccc([C@@H](N)C(=O)OCC)cc1`, the “% Inhibition” value was -9% and the Z score came to 1.1.
In the same order, the values of `CCc1nc(C)sc1C(=O)NC1(COC)CCCC1` are -6% and 0.77.
The corresponding values for `O=C(NCc1ccc(NC(=O)c2ccc(F)cc2)cc1)C1=COCC1` are -10% and 1.35.
On to `C[C@@H](CNC(=O)N1CCCC1(C)C)CN(C)C(=O)OC(C)(C)C`, for which the “% Inhibition” value came to 1% and the Z score was -0.11.
As to `COc1ccccc1Cn1cnc2c1c(=O)n(C1CCCCC1)c(=O)n2-c1ccccc1Cl`, the “% Inhibition” value came to 69% and the Z score is reported as -6.45.
In the same order, the values of `Cc1ccccc1C(=O)N[C@@H]1CCCC[C@H]1NC(=O)C1CCCN(C(=O)c2cccc(F)c2)C1` (stereo not given in full) are -3% and 0.26.
For the compound `O=C(NCc1nccs1)c1sccc1OC(F)F`, the “% Inhibition” value is -5% and the Z score stood at 0.44.
Turning to `COc1ccccc1OCCN1C[C@@H](C(=O)NCC2CCOCC2)CC1=O`, the “% Inhibition” value is -5% and the Z score was 0.7.
In the same order, the values of `O=C1CC2(CCN(c3cnc4ccc(Cl)cc4n3)CC2)CN1` are -4% and 0.54.
`O=S(=O)(c1cccnc1)N1CCCN(C2CCC2)CC1`: the “% Inhibition” value was -11% and the Z score was found to be 1.96.
In the same order, the values of `CN(c1ccc(Cl)cn1)S(C)(=O)=O` are -4% and 0.57.
In the same order, the values of `NC(=O)Cc1nc(CCCn2cccn2)n(Cc2ccccc2Cl)n1` are 1% and -0.17.
In the case of `CC(C)c1ocnc1CN[C@@H](C)c1ccc(S(C)(=O)=O)c(F)c1`, the “% Inhibition” value was -1% and the Z score came out at 0.23.
For the compound `Cc1cc(C)cc(OCC(=O)Nc2nc(C)ns2)c1`, the “% Inhibition” value is on record as -14% and the Z score is listed as 1.93.
`O=C(Cc1cccc(Cl)c1)N[C@@H]1C[C@H]2OCC[C@@H]12`: the “% Inhibition” value is 4% and the Z score is given as -0.57.
`COCC1(NC(=O)Cc2c(C)nn(CC(F)(F)F)c2C)CCCC1`: the “% Inhibition” value is given as 34% and the Z score is on record as -3.84.
In the same order, the values of `C#CCCC1(CCC(=O)N2CCC[C@H]2c2ccc(OC)c(F)c2)N=N1` are -15% and 1.89.
In the same order, the values of `CC(C)c1cc(NCCc2n[nH]c(N)n2)ncn1` are -9% and 1.
On to `O=C(CCC1CCCCC1)Nc1ccn(CC(=O)N2CCOCC2)n1`, for which the “% Inhibition” value is -4% and the Z score is given as 0.54.
For `COCCO[C@H]1CCOC2(CCN(C(=O)Cc3cccc(C)c3)CC2)C1`, the “% Inhibition” value is 35% and the Z score is on record as -5.13.
On to `c1ccc(Cc2n[nH]c3c2CN(c2nnnn2-c2ccccc2)CC3)cc1`, for which the “% Inhibition” value is 0% and the Z score was -0.05.
Turning to `Cn1nccc1-c1csc(S(=O)(=O)NC2CCCC2)c1`, the “% Inhibition” value is 1% and the Z score is -0.09.
For `OC1CN(c2nc([C@H]3CCOC3)cc(N3CC(c4ccccn4)C3)n2)C1`, the “% Inhibition” value is -25% and the Z score is on record as 2.2.
`Cc1cc(CNC(=O)c2ncoc2-c2ccco2)c(C)o1`: the “% Inhibition” value is reported as 34% and the Z score is on record as -3.79.
`Cc1nc(C)c(C(=O)N2CC[C@H](CCc3noc(C4CC4)n3)C2)s1`: the “% Inhibition” value worked out at 4% and the Z score is listed as -0.57.
In the same order, the values of `CN(C)C(=O)c1ccc(NC(=O)N2CCC(O)(C3CCC3)CC2)nc1` are -9% and 1.74.
In the same order, the values of `Cc1csc(NC(=O)C2CCN(C(=O)C(F)(F)c3ccccc3)CC2)n1` are -13% and 2.09.
For the compound `CCc1nc(CN2CCC(CNC(=O)c3sccc3C)CC2)n[nH]1`, the “% Inhibition” value was -12% and the Z score stood at 2.22.
Regarding `COC(=O)[C@@H]1CCCCN1C1CCCC1`, the “% Inhibition” value is listed as -8% and the Z score stood at 1.29.
For the compound `FC(F)(F)Cc1noc(CN2CCOCc3ccccc32)n1`, the “% Inhibition” value is -15% and the Z score is reported as 1.75.
`CC(C)Nc1nc2n(c(=O)n1)CCN2C(C)C`: the “% Inhibition” value is -8% and the Z score is on record as 0.69.
Take `COc1ccc(C(=O)N2[C@H](C(=O)NCc3ccccc3)COC23CCN(C(=O)c2ccccc2Cl)CC3)cc1`: the “% Inhibition” value is recorded as -21% and the Z score worked out at 3.8.
In the same order, the values of `CC(C)NC(=O)[C@@H]1C[C@@H](NCc2c(F)cccc2F)CN1C(C)C` are -7% and 1.21.
As for `CCc1ccc2ncn([C@H]3COC[C@@H]3O)c(=O)c2c1`, the “% Inhibition” value amounted to 0% and the Z score is 0.09.
On to `CCOc1ncccc1CNC(=O)c1ccc2ccccc2n1`, for which the “% Inhibition” value is recorded as -19% and the Z score is on record as 2.1.
`CCC(NCC1CCCS1(=O)=O)c1cc(C)ccc1OC` (stereo not given): the “% Inhibition” value is -18% and the Z score is recorded as 2.74.
The corresponding values for `Clc1cccc2c1OCCN2Cc1cnc(N2CCOCC2)nc1` are -4% and 0.45.
On to `CC(NC(=O)CN1C(CO)CCS1(=O)=O)c1cccs1` (stereo not given), for which the “% Inhibition” value is given as -13% and the Z score is on record as 1.53.
In the same order, the values of `CC1(C)CN(C(=O)c2conc2C2CC2)C[C@H](CO)O1` are -10% and 2.01.
Regarding `CCOc1cc(N(C)Cc2nnc3c(=O)n(C)ccn23)ncn1`, the “% Inhibition” value is recorded as -7% and the Z score is given as 1.21.
